Measurements as given in the supplement of paper PMC12217912.
Some of the results follow. Sequences were assembled here from the parent chain. Inactive controls read about 0.05.

B1: TEV protease; numbered along this chain (parent)
chain: MGESLFKGPRDYNPISSSICHLTNESDGHTTSLYGIGFGPFIITNKHLFRRNNGTLVVQSLHGVFKVKDTTTLQQHLVDGRDMIIIRMPKDFPPFPQKLKFREPQREERICLVTTNFQTKSMSSMVSDTSCTFPSGDGIFWKHWIQTKDGQCGSPLVSTRDGFIVGIHSASNFTNTNNYFTSVPKNFMELLTNQEAQQWVSGWRLNADSVLWGGHKVFMVKPEEPFQPVKEATQL

Variants of: B1
Experiment: raw area under fraction-flipped curve 0-4 h after induction (AUC4h, not background-subtracted), DNA-recorder readout of cleavage of the substrate (dimensionless); higher = more cleavage of the substrate by the protease variant
Conditions: temperature: 34 °C; time window: 0-4 h after rhamnose induction
Method: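 In vivo DNA recorder in E. coli TOP10(DE3) ΔrhaA at 34 °C. Each TEVp single-site mutant (parent TEVp 0) is paired with a single-site variant of the 7-mer TEVs (canonical ENLYFQ|S). The substrate sits between flexible linkers in a Bxb1-sfGFP-TEVs-SsrA fusion, so cleavage stabilises Bxb1 and speeds flipping of a recombination array, read by NGS. The value is the raw area under the fraction-flipped curve over 0-4 h after rhamnose induction (AUC4h), with ≥20 reads per time point. It is not background-subtracted; inactive controls average about 0.047.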
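Also: Bxb1 expression induced with 0.2% (w/v) L-rhamnose at OD600 near 0.5, cultures sampled hourly, flipped fraction per protease–substrate barcode pair counted by paired-end Illumina sequencing.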

Variant	area with substrate ENLYAQS	area with substrate ENLYDQS	area with substrate ENLYEQS	area with substrate ENLYGQS	area with substrate ENLYHQS	area with substrate ENLYIQS	area with substrate ENLYKQS	area with substrate ENLYMQS	area with substrate ENLYNQS	area with substrate ENLYPQS	area with substrate ENLYRQS	area with substrate ENLYSQS	area with substrate ENLYVQS	area with substrate ENLYWQS	area with substrate ENLYCQS	area with substrate ENLYLQS	area with substrate ENLYQQS	area with substrate ENLYTQS	area with substrate ENLYYQS
I36L	0.0629	0.056	0.0714	0.0788	0.0636	0.131	0.0663	0.1	0.0734	0.0886	0.0773	0.0707	0.118	0.0826	–	–	–	–	–
Q151C	0.0826	0.0587	0.0709	0.066	0.0644	0.0867	0.0649	0.0961	0.0669	0.0619	0.0746	0.0773	0.0886	0.0636	0.0819	0.0801	0.0712	0.0774	0.051
E195F	0.0598	0.0541	0.0681	0.0821	0.0559	–	0.0602	0.077	0.0661	0.0623	0.0572	0.0643	0.128	0.0676	0.0827	–	0.0179	0.0719	0.0517
K68E	0.0875	0.0744	0.0641	0.0838	0.0907	0.138	0.073	0.0726	0.0561	0.0748	0.0752	–	0.121	–	–	–	0.0694	–	0.0694
K230L	0.0662	–	0.0678	0.0691	0.0647	0.117	–	0.0851	–	0.0643	0.0496	0.0625	–	0.0742	–	0.0787	0.0525	–	0.0383
H76S	0.0828	0.0465	0.0737	0.0662	0.0673	0.0776	0.0524	0.0933	–	0.0435	0.0742	–	0.138	0.0765	0.0875	0.0768	0.0701	0.0816	0.0822
Q74F	0.0679	–	0.0682	0.0842	0.0699	–	0.0225	0.0778	0.0374	0.0741	–	–	0.0978	–	–	0.074	0.0568	–	–
K46H	0.0596	0.0697	0.054	0.0522	0.0609	0.0529	0.0676	0.0556	0.0523	–	0.0492	0.0685	0.0654	0.054	0.0295	0.0459	0.0311	–	0.0641
Q97S	0.0771	0.0577	–	0.0772	0.0726	–	–	–	–	–	–	0.0769	0.1	–	–	0.0959	–	–	–
F218L	0.0775	–	0.0598	0.056	0.0755	–	0.112	0.0745	0.0616	0.0603	0.0455	0.0576	0.126	0.0677	–	0.0502	0.0641	–	0.0616
N116E	0.0719	0.0613	0.0675	0.0866	0.0716	–	0.0683	–	0.0734	0.0779	0.0645	0.0745	0.115	0.075	–	0.0855	–	0.0729	–
P14R	0.0682	0.0683	0.0623	0.0694	0.0564	0.129	0.055	0.106	0.0698	0.0855	0.0376	0.0597	0.136	0.0607	–	–	0.0612	–	0.057
P14S	0.0788	0.072	0.0635	0.066	0.0692	0.157	0.0796	0.0761	0.0824	0.0764	0.0655	0.0779	0.102	0.0818	0.0915	0.0809	0.075	0.0722	–
F173L	0.0771	0.0638	0.0969	0.0745	0.0845	0.115	0.0729	–	0.0614	0.0721	–	–	–	0.0794	–	–	0.0684	–	–
A207V	0.0788	0.0341	0.0677	0.0523	0.0716	0.159	0.0731	0.074	0.0655	0.0822	–	0.0679	0.111	0.082	–	–	0.0726	0.0646	0.0635
L156V	0.0465	0.0624	0.0672	–	0.0825	0.0904	0.0646	0.0814	0.0681	0.0798	–	0.0685	0.117	0.0977	0.0725	0.0607	0.0772	–	0.0431
I164W	0.0466	–	0.0447	0.0477	0.0503	–	0.0595	0.0527	0.05	0.0565	0.0502	–	0.0629	–	0.0444	–	–	–	–
S201L	0.086	0.0628	0.066	0.0535	0.0562	0.0757	0.0624	0.089	–	0.0771	–	0.0678	–	–	–	0.0791	0.0529	0.0931	0.0681
F226K	0.125	0.0645	0.061	0.077	0.0731	0.118	0.0552	0.0726	0.0658	0.0748	0.0766	0.0715	0.12	0.101	0.0822	0.0734	0.0384	–	–
D149N	0.0688	0.0636	0.0605	0.0548	0.0751	–	0.0499	0.124	0.0543	0.0635	0.0656	0.064	0.12	0.075	0.0977	–	–	0.0616	0.0445
Q105G	0.0636	0.0539	0.0692	0.0557	0.0634	0.113	0.0634	0.0695	0.0743	0.0727	–	0.0741	–	0.0669	–	–	0.0559	0.0812	0.0729
D82F	0.0593	0.053	0.0524	0.0655	0.0723	0.0574	0.0579	0.0503	0.0579	0.0575	–	–	0.0612	–	–	0.0599	0.0154	–	0.0658
H47V	0.0593	0.0799	–	–	0.0577	0.0659	0.0606	0.0597	0.0662	–	0.0624	0.0632	0.0596	0.0538	0.0565	–	0.0669	–	0.062
Y179L	0.0515	0.0499	–	–	0.0612	–	0.0622	0.0567	0.0616	0.0484	0.0519	–	–	0.0668	–	–	–	–	–
